Measured values as given in the supplement of paper PMC11417369.
± gives the standard deviation of the averaged measurements. The list shows a part of the results.

test system: PfAP2-EXP AP2 domain (GST-tagged); assay: gcPBM binding intensity (ln(normalized median fluorescence intensity)); higher = stronger DNA binding
Method in brief: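 GST-tagged P. falciparum DNA-binding domains, expressed in E. coli (about 25 μg on average), were applied for 1 h to an Agilent 4 × 180k array of primer-extended double-stranded 36-bp intergenic genomic probes plus negative controls. The binding buffer was 1× PBS with 1% milk, 0.2 mg/ml BSA, 0.5% salmon testes DNA and 0.03% Triton X-100. Bound protein was detected with Alexa488 anti-GST antibody and scanned at 488 nm. Binding intensity is the highest Masliner-normalised natural-log median intensity across replicate spots of either probe orientation.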

Sequence	gcPBM binding intensity (ln)
TTACCTATTCTAAAATGTACACATTATATATGTGCT [XGTACX_site5776]	8.53 ± 0.3
ACATGTTTCATATGTTGTACTAACTTAAATATAAAT [XGTACX_site6412]	8.5 ± 0.31
TTGTACATCTTTTGCACACGTAATGTTATTAAAATA [CACACA_site4827]	8.79 ± 0.26
TGTATATTTGTTGTTACACACATATATTTTTTTTTT [CACACA_site128]	8.53 ± 0.3
TTATAACAAAAAATTAAAGAAAGAGAATAAGTGAAA [CACACA_negctrl_site975]	8.83 ± 0.45
AGGTCCTACACCAATAAATATCATATATATATTATA [CACACA_negctrl_site568]	8.22 ± 0.37
TTAACTATAATAAAATGTACATATGTAACATATATA [XGTACX_site7790]	8.41 ± 0.34
TTGATATCTTTTTTTTGTACATATATTTATAAGTAA [XGTACX_site3538]	8.74 ± 0.48
TTTTTTTAAATTATATGTACATAATTTTAATTTTAT [XGTACX_site5086]	8.33 ± 0.28
AAAATATAAGCCACTACACACATATATAAATGTATA [CACACA_site2639]	8.35 ± 0.43
TTTTAGAGTGATATATATTAACTTTTAATAAAAAAA [CACACA_negctrl_site611]	7.89 ± 0.3
GTTATACACATATATACACACATATGTAGATATATA [CACACA_site7529]	8.48 ± 0.33
TAAAGTACAGGAGTAAATTGAAAAAAAAAAAAAAAA [CACACA_negctrl_site1410]	8.29 ± 0.4
ATAAATAAATAAATACGTACATATATATATATATAT [XGTACX_site8838]	9.98 ± 0.38
TATAATATTCCTTTTTAACACACATATGAACAAATA [CACACA_site7932]	8.48 ± 0.47
ATACATATATTTTTATGTACATATATTTTTTTTGTA [XGTACX_site4546]	8.52 ± 0.2
TATTTTTTTTGTCATATATAAGAAACGCTCTTCTTT [TGCATGCA_negctrl_site127]	8.49 ± 0.56
ATATTTATATTTTCATGTACGTATTTTTATATATAT [XGTACX_site8478]	8.715 ± 0.021
TGCATTATATTAAATTTTTTATTTGTTGATGTTATA [GTGCAC_negctrl_site371]	8.39 ± 0.26
TGAAATAAAATTTGTACACACATATTTATTTATATA [CACACA_site6421]	8.19 ± 0.12
AAATAAAAGATATTTTTACACACTTTTGATGAGATC [CACACA_site9000]	8.16 ± 0.39
ATATATATACATATAACACACACATATATATATATA [CACACA_site8827]	10.1 ± 0.31

Sequence	gcPBM binding intensity (ln)
TTGTATTTATTTATGGGAGGATTATAATCATTGTAG [GTGCAC_negctrl_site268]	8.49 ± 0.52
TAATTCACATTTTATACACACATTCGAACCTTTTTT [CACACA_site3341]	8.81 ± 0.49
TATAGATATATACGGTGTACATACATAAAAAAAAAA [XGTACX_site1648]	8.54 ± 0.35
ATTTTTATTAGTTATTGTACTTATTATTTATTAATT [XGTACX_site2568]	8.66 ± 0.38
TATAAAGAAATCATTACACACAAATAAATACATACA [CACACA_site2675]	8.65 ± 0.59
TATAGTCAACTAGTCACACATATAATTATATATATA [CACACA_site5872]	8.9 ± 0.042
ATATTAATTTCTCATGCATGTTCTTCCCAATTGTAA [TGCATGCA_site425]	9.09 ± 0.24
GGTTAGACGAAATATACATGCAATGGAAAATAAGTT [TGCATGCA_site23]	9.42 ± 0.24
TCATCATGTATGTACACACATACATATATTATGTAC [CACACA_site1386]	8.5 ± 0.3
TATAAGTAGATAAGGGTGCACAATATAAATATATAG	9.9 ± 0.97
CTTTTTGAAATATTAACACACATTTTGTTAATGAAT [CACACA_site6087]	8.24 ± 0.38
CACAAGAAAATTCACACACACACATATATATATATA [CACACA_site3880]	10.1 ± 0.27
TCCTTAATTCAAAAAATAATATCTTATATTTCAAAT [CACACA_negctrl_site1592]	7.95 ± 0.26
GGAATAAAGACAGCACGTACATATCTTACGAAGCTC [XGTACX_site3918]	8.46 ± 0.36
GGTTCATTAAAGTGTACACATAAATACCGTAACATT [CACACA_site6002]	8.73 ± 0.35
CTAAGGTATGATTAATCACACACATAAATATATATA [CACACA_site8847]	8.67 ± 0.21
AGAATAAGAATTATTAGTACTTATAAATATTATATT [XGTACX_site7228]	8.21 ± 0.38
GTAAATACACATATGTGTACATATATATATATATAT [XGTACX_site3696]	10.2 ± 0.35
TAATTTAAAATATATAGTACACACGTGAACACAAAT [XGTACX_site792]	8.89 ± 0.45
CTATTACATTAAATGTGTACATATATATATATATAT [XGTACX_site5233]	10.1 ± 0.28
GTGGCTACTATATATTGTACGATATTATATATATAC [XGTACX_site8376]	8.62 ± 0.28
ATCGAAATTTTAGAATATATATGATGTTACTTAAGT [GTGCAC_negctrl_site611]	8.44 ± 0.36

Sequence	gcPBM binding intensity (ln)
TAAAATATCATAGATAGTACATATAACGTTTTATAT [XGTACX_site5666]	8.44 ± 0.33
GTAAGAATATTTATAAATGTATAATTTGTATTATTT [GTGCAC_negctrl_site667]	8.12 ± 0.43
CATGACATAAAAAATATACACACTATAATATATATA [CACACA_site1402]	8.78 ± 0.13
ATGAAAATTTATATTGCACACATAGGGAATAAAAAA [CACACA_site8667]	8.87 ± 0.28
AAATATATTATATTTAGTACGCATATATAATATGCA [XGTACX_site4835]	8.21 ± 0.25
AGTTAATTAATAGGCACACATATATATGTATAAATA [CACACA_site523]	8.91 ± 0.43
ACCATATAAATAAACACACACACACCCATATATATA [CACACA_site2321]	8.74 ± 0.4
TATATATCTATATTTACACACAGTTACTATGTAGAT [CACACA_site7532]	8.34 ± 0.34
ATAATATGTATAATCACACATTTTTCTTTTAAGACA [CACACA_site5297]	8.23 ± 0.4
GTTAAACTTAATATCGGTACACACACAAGATAAGAA [XGTACX_site1660]	8.82 ± 0.57
ATGGATTATACGTGCACACATATATACAAATAAATA [CACACA_site640]	9.43 ± 0.7
ACCATTTGTAGGTAAACACACATTATTATTAATATC [CACACA_site2635]	8.48 ± 0.33
TAAAATGCAATCTGAACACACATATTTTTTTAATAT [CACACA_site6922]	8.18 ± 0.45
TACATCATACGAACAGTGCATATTATTATTGTTCTG	8.36 ± 0.15
TACTTACCAAAATACACACACACACTAGATATATAA [CACACA_site5096]	8.79 ± 0.49
TATATATCATATGATACATGCAACAAAATGCATAAT [TGCATGCA_site205]	8.89 ± 0.23
ATGTATATTACTCATTGTACTTATATTTTCTTATTA [XGTACX_site8897]	8.6 ± 0.33
GTATTTATAAATTATAGTACTTTGCGTATCATATAT [XGTACX_site7358]	8.86 ± 0.51
ATTTTATATCTGGATAGTACTTTAATATTTCAAATG [XGTACX_site7304]	8.54 ± 0.29
GGATATTCATTAACCACACACACAAAAAAAATAAAA [CACACA_site3800]	8.74 ± 0.46
TTATATTATACATACACACCCATATAATATGTTTTT [CACACA_site4636]	8.73 ± 0.42
AGCTACACACCACAATGTACATAAATATATATGTGA [XGTACX_site1483]	8.59 ± 0.45

Sequence	gcPBM binding intensity (ln)
TTGTTTTTGTTCTTGGGTACTTAAATTATAAATGAT [XGTACX_site113]	8.88 ± 0.45
TCTTATGAATATCCCCGTACACATATATTTCTTATA [XGTACX_site6877]	8.81 ± 0.38
TATTGTATATACTATACACACACATACATACATACA [CACACA_site8172]	9.26 ± 0.17
AGAATATTTAATTCAACACACATACATATTTATTAA [CACACA_site5318]	8.21 ± 0.38
GAAGCCCTATGAAAAGTGCGGTTCATGAACAAAGAA [GTGCAC_site9828]	8.99 ± 0.41
TACTTTATATAAAGATCAAAAAATAAATAATTATAA [TGCATGCA_negctrl_site446]	8.45 ± 0.21
GGATAATATATTAGAACACACATATAGATGTAAAAA [CACACA_site6229]	8.57 ± 0.54
ATATATTTATATAAATGTACATACAGCACATTTATA [XGTACX_site4725]	8.44 ± 0.4
CAAATATACATATGTAGTACATGTTGTAGATAATTT [XGTACX_site2790]	8.66 ± 0.33
ATAAGGAAGGGATGCACACAAAAGGGTACATAAGAA [CACACA_site4006]	8.93 ± 0.35
TTTGAATCCTTATATACACACATTATAAAATATTAT [CACACA_site6406]	8.49 ± 0.39
TATTTGTAAATCGATACACACATATAGATTAATATA [CACACA_site6237]	8.46 ± 0.5
CGTATATGACAAAAGCGTACGCATCAGCAGAAAAAT [XGTACX_site6248]	9.29 ± 0.5
ATATATATATATATATGTACTGAATAAAGAACAAAA [XGTACX_site5400]	10.1 ± 0.42
AAAAAAAATGATAATATACACACTTATGGGAGAGCG [CACACA_site2516]	8.4 ± 0.28
AGAAATAAGAAATATACACACATATAAATATAAATA [CACACA_site7342]	8.52 ± 0.55
TAAAAAAAAACATATACACACAAAAACGTACACATA [CACACA_site1354]	8.86 ± 0.36
TTTTTTTCTCACAATCGTACATAAATACATATATAT [XGTACX_site3150]	8.67 ± 0.26
AGAATATGTTAAAAAAGTACATACTCTTTATATACG [XGTACX_site79]	8.35 ± 0.29
AGGGGAAATAAAATATAAATTATCATATATATATAT [XGTACX_negctrl_site366]	9.94 ± 0.21
TAATGTACATAAACCGCACACATATAAAAAAATAAA [CACACA_site2851]	8.74 ± 0.52
TATATTTTTTAAACCACACACAATATAGAGTAGAAT [CACACA_site613]	8.83 ± 0.35
